Laboratory results from PubChem BioAssay AID2107 (National Center for Advancing Translational Sciences (NCATS), 2009).
The campaign covered roughly 240,000 compounds. About 20 (0.008%) were called active. The inconclusive results got no clear call from the source; some entries with a clear call stand among them for comparison. The call rests on the fitted dose curve; in most records, active means well fitted inhibition curve with a large enough effect; inconclusive means small, poorly fitted or top-dose-only effect, or effect the other way; inactive means flat fitted curve, though single readings scatter. No potency is given beside an inconclusive call; the fits are too rough.

What follows are compounds tested against Alpha-galactosidase A (Homo sapiens) (UniProt P06280) (assay: qHTS Assay for Inhibitors and Activators of Human alpha-Galactosidase From Spleen Homogenate). Conditions: 4MU-alpha-Gal fluorescence, 40 min; activity change, negative = inhibition: at 80 µM (top of the series).
Outline: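 Inhibition or activation of alpha-galactosidase in human spleen homogenate is scored by 4-MU fluorescence after 40 min at 37C, pH 5.0, with 1 mM substrate. AC50s come from concentration-response fitted to the Hill equation.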
Potency means the concentration at half of the fitted maximal effect; tags describe the fitted curve by direction and shape.
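Wherever activity change, negative = inhibition is given: 0% = enzyme with vehicle and -100% = no enzyme basal signal.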

UniProt P06280, sequence (P06280 whole entry, looked up): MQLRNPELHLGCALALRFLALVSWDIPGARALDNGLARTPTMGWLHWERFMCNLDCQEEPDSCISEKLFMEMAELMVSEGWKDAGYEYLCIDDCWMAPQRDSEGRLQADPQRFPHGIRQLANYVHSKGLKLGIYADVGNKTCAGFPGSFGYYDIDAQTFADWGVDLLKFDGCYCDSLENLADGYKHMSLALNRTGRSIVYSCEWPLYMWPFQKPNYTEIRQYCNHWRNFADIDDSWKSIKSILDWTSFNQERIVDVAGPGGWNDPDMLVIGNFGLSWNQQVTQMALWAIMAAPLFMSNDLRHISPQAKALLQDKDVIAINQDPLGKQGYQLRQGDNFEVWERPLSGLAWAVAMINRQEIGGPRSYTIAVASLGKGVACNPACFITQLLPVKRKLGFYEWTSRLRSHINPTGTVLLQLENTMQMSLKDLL

| Compound | activity change, negative = inhibition | Potency |
| --- | --- | --- |
| O=c1c2sccc2nc(SCc2cc(=O)n3cc(Br)ccc3n2)n1Cc1ccccn1 | inactive: -2.1% | – |
| COC(=O)C1=CN(CCCN2CCCC2=O)C=C(C(=O)OC)C1c1cccs1 | – | inconclusive [activator, partial curve] |
| CC[C@H](C)[C@H](NC(=O)[C@H](Cc1ccc(O)cc1)NC(=O)[C@H](Cc1cnc[nH]1)NC(=O)[C@H](CCCNC(=N)N)NC(=O)[C@H](CC(C)C)NC(=O)[C@H](C)NC(=O)[C@H](CO)NC(=O)[C@H](Cc1ccc(O)cc1)NC(=O)[C@H](Cc1ccc(O)cc1)NC(=O)[C@H](CCCNC(=N)N)NC(=O)[C@H](C)NC(=O)[C@H](CCSC)NC(=O)[C@H](CC(=O)O)NC(=O)[C@H](CCC(=O)O)NC(=O)[C@H](C)NC(=O)[C@@H]1CCCN1C(=O)[C@H](C)NC(=O)[C@H](CC(=O)O)NC(=O)[C@H](CCC(=O)O)NC(=O)CNC(=O)[C@@H]1CCCN1C(=O)[C@H](CC(N)=O)NC(=O)[C@H](CC(=O)O)NC(=O)[C@@H]1CCCN1C(=O)[C@H](CCCCN)NC(=O)[C@H](CO)NC(=O)[C@@H]1CCCN1C(=O)[C@@H](N)Cc1ccc(O)cc1)C(=O)N[C@@H](CC(N)=O)C(=O)N[C@@H](CC(C)C)C(=O)N[C@H](C(=O)N[C@H](C(=O)N[C@@H](CCCNC(=N)N)C(=O)N[C@@H](CCC(N)=O)C(=O)N[C@@H](CCCNC(=N)N)C(=O)N[C@@H](Cc1ccc(O)cc1)C(N)=O)[C@@H](C)O)[C@@H](C)CC | inactive: -3.56% | – |
| Brc1ccc(-c2cn3c(n2)CCc2ccc4cccnc4c2-3)cc1 | – | inconclusive [activator, single point] |
| Cc1cccc(N(CC(O)CN(C)C)S(=O)(=O)c2ccccc2)c1 (stereo not drawn) | – | inconclusive [inhibitor, single point] |
| N#Cc1nc(COc2ccccc2)oc1NCCCn1ccnc1 | – | inconclusive [activator, partial curve, poor fit] |
| Cc1[nH]c(=O)[nH]c(=O)c1/C=N/NC(=O)[C@H](C)NC(=O)OC(C)(C)C | – | inconclusive [activator, single point] |
| COc1ccc(N2C(=O)[C@@H]3[C@H](C2=O)[C@H](C(=O)c2ccc(OC(C)=O)cc2)N2N=CC=C[C@@H]32)cc1 | inactive: -4.02% | – |
| O=C(Oc1ccc2c3c(c(=O)oc2c1)CCCC3)c1cccs1 | – | inconclusive [activator, partial curve] |
| O=C(NCCc1ccccc1)C(c1cccs1)N(C(=O)c1csnn1)C1CC1 (stereo not drawn) | – | inconclusive [inhibitor, partial curve] |
| COC(=O)c1c(C)oc2c1cc(NS(=O)(=O)c1cccs1)c1ccccc12 | inactive: -3.45% | – |
| COc1cc(/C=C2/NC(=O)N(Cc3ccccc3F)C2=O)cc(OC)c1O | – | inconclusive [inhibitor, single point] |
| Cn1c(=O)oc2cc(S(=O)(=O)Nc3cccc(F)c3)ccc21 | inactive: 12.3% | – |
| CCCOc1ccccc1-c1nc2c([nH]1)c(=O)[nH]c(=O)n2C | – | inconclusive [activator, single point] |
| Cc1ccc(NC(=O)c2cc(C)on2)cc1 | – | inconclusive [activator, single point] |
| COc1ccc(-c2cc(=O)c(C(=O)c3ccc(C)cc3)n[nH]2)cc1 | – | active: 39.8 µM |
| CCOc1ccc(OCC)c(S(=O)(=O)N2CCOCC2)c1 | inactive: -12% | – |
| Cc1onc(-c2ccccc2Cl)c1C(=O)Nc1cccc(-c2cn3cccnc3n2)c1 | – | inconclusive [activator, partial curve] |
| CN(C)CCCN1c2ccccc2Sc2ccc(Cl)cc21 | – | inactive |
| CC(=O)NS(=O)(=O)c1ccc(NC(=S)NC(=O)C(C)C)cc1 | inactive: -2.65% | – |
| Cc1nnc(NC(=O)CSc2nnc(-c3ccoc3C)n2CC(C)C)s1 | – | inconclusive [inhibitor, single point] |

| Compound | activity change, negative = inhibition | Potency |
| --- | --- | --- |
| CCc1nnc(NC(=O)CCC(=O)NC2CCCc3ccccc32)s1 (stereo not drawn) | inactive: 2.49% | – |
| Cc1[nH]nc2c1-c1nc3ccccc3nc1C(C)(C)C2 | – | inconclusive [activator, single point] |
| C=CCn1c(N)c(S(=O)(=O)c2cccs2)c2nc3ccccc3nc21 | – | inconclusive [activator, partial curve] |
| Nc1ccn([C@@H]2O[C@H](CO)[C@@H](O)[C@@H]2O)c(=O)n1 | – | inconclusive [inhibitor, full curve] |
| CCN1c2ccccc2-c2nc3ccccc3n2C1c1cccnc1 (stereo not drawn) | – | inconclusive [activator, partial curve] |
| NC(=O)c1ccc[n+](CC(=O)c2ccccc2)c1 | inactive: 0.394% | – |
| CCc1cccc(NC(=O)Cn2cc3c(n2)CCCC3)c1 | – | inconclusive [inhibitor, full curve, poor fit] |
| CCNc1ncc2nc(-c3ccccc3)c(=O)n(C[C@H]3CCCO3)c2n1 | – | inconclusive [activator, single point] |
| c1ccc(-n2ncc3c(NCc4cccnc4)ncnc32)cc1 | – | inconclusive [activator, full curve, poor fit] |
| CCOCCCn1c(=NC(C)=O)c(C(=O)OCC)cc2c(=O)n3ccccc3nc21 | – | inconclusive [activator, partial curve] |
| C=CCNC(=S)NNc1nc(Nc2ccccc2)nc(N2CCCCC2)n1 | inactive: -24.6% | – |
| CCc1c(C)c2cc(Cl)c(O)c(CN3CCCCC3)c2oc1=O | – | inconclusive [activator, partial curve] |
| O=C(CN1CCCCC1)Nc1c2c(nc3ccccc13)N(c1ccccc1)CC2 | – | inconclusive [activator, partial curve] |
| Cc1ccc(-c2nnn(CCC(=O)NC3CCCC3)n2)cc1 | – | inconclusive [inhibitor, single point] |
| CC(Oc1ccc(Br)cc1)c1nc2c3ccccc3nc(=S)n2[nH]1 (stereo not drawn) | inactive: 3.89% | – |
| CN1Cc2c(N)cccc2C(c2ccccc2)C1 (stereo not drawn) | – | inconclusive [inhibitor, full curve] |
| CCCCC1OC23CCCCC2C(C#N)(C(=N)O3)C1(C#N)C#N (stereo not drawn) | – | inconclusive [activator, single point] |
| CCC1C(=O)n2nc(-c3ccccc3)cc2N=C1C (stereo not drawn) | – | inconclusive [inhibitor, single point] |
| Cc1c(C(=O)Nc2ccccc2)cn2c(nc3ccccc32)c1C#N | inactive: -9.87% | – |
| OC[C@@H]1[C@@H](c2ccccc2)C(c2cccc(Cl)c2)=NN1c1ccccc1 | – | inconclusive [activator, partial curve] |
| COC(=O)c1ccc(C2/C(=C(/O)c3ccc(OC)cc3)C(=O)C(=O)N2Cc2ccco2)cc1 (stereo not drawn) | inactive: -2.69% | – |

| Compound | activity change, negative = inhibition | Potency |
| --- | --- | --- |
| CC(c1ccccc1)N(CCC(c1ccccc1)C1CCOC(C)(C)C1)C(=O)c1ccco1 (stereo not drawn) | – | inconclusive [inhibitor, partial curve] |
| O=C(NNc1nc2cc3c(cc2s1)OCO3)c1ccc(F)cc1 | inactive: 9.15% | – |
| CC(C)n1c(=NC(=O)c2ccco2)c(C#N)cc2c(=O)n3ccccc3cc21 | – | inconclusive [activator, partial curve] |
| COC(=O)c1sc(NC(=O)C(C)C)c(C(=O)OC)c1C | inactive: -1.33% | – |
| CCN(CC)S(=O)(=O)c1ccc2oc(SCC3CN=C(c4ccc(OC)cc4)S3)nc2c1 (stereo not drawn) | inactive: 1.53% | – |
| COc1ccc(CCN2C(=S)N(c3ccc(Cl)cc3)C(=O)C2CC(N)=O)cc1OC (stereo not drawn) | – | inconclusive [inhibitor, partial curve, poor fit] |
| CCN(CC)CCOCCOc1ccc(Cl)c2ccccc12 | inactive: -6.85% | – |
| Cc1ccc2c(c1)c1ncnc(N3CCc4ccccc4C3)c1n2C | – | inconclusive [activator, partial curve] |
| COc1ccc(/C=N/Nc2ccccn2)cc1OC | inactive: -6.94% | – |
| CN1/C(=C\C(=O)C[n+]2ccc(C(=O)c3ccccc3)cc2)C(C)(C)c2ccccc21 | inactive: -5.35% | – |
| NS(=O)(=O)c1cccc2c1c([N+](=O)[O-])cc1[nH]c(=O)c(=O)[nH]c12 | – | inconclusive [inhibitor, partial curve, poor fit] |
| COc1ccc2cc3cc(C(=O)NCCN4CCc5ccccc5C4)oc3nc2c1 | – | inconclusive [activator, partial curve] |
| CS(=O)(=O)N(CC(=O)NC1CCCCC1)c1cccc(Cl)c1 | – | inconclusive [inhibitor, single point] |
| CC1CCC(C(=O)O)NC1c1ccc(C#CCN(C)C)cc1 (stereo not drawn) | – | inconclusive [inhibitor, single point] |
| CC(C)NC(=O)c1ccccc1NC(=O)c1ccccc1N(C)S(C)(=O)=O | – | inconclusive [inhibitor, single point] |
| CC(NC(=O)Nc1nnc(C(F)(F)F)s1)(C(F)(F)F)C(F)(F)F | inactive: -22.5% | – |
| CCCCCn1c(CN(C)Cc2ccccc2)nc2c1c(=O)n(C)c(=O)n2C | – | inconclusive [inhibitor, partial curve] |
| COc1ccc(NC(=O)CSc2nnc(-c3ccccn3)n2N)c(OC)c1 | – | inconclusive [inhibitor, single point] |
| Cn1c(=O)c(-c2cc(F)cc(F)c2)nc2cnc(N3CCNCC3)nc21 | – | inconclusive [activator, single point] |
| Cc1ccccc1-c1ccc2ncnc(NCCN3CCOCC3)c2c1 | inactive: 2.19% | – |
| Cc1ccc(-c2csc(=S)[nH]2)cc1 | inactive: -2.08% | – |
